{"source": "paper PMC6919601", "about": "“Identification of Plasmodium dipeptidyl aminopeptidase allosteric inhibitors by high throughput screening” (PLoS ONE, 2019)", "note": "About 230 (0.21%) of roughly 110,000 compounds showed an effect of 50% or more. The list shows a part of the results.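 Further: 30 min substrate incubation versus DMSO and 10 µM JCP410 controls.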", "data": [{"biological_target": "DPAP1 (Plasmodium falciparum, UniProt Q8IIJ9)", "sequence (Q8IIJ9 whole entry, looked up)": "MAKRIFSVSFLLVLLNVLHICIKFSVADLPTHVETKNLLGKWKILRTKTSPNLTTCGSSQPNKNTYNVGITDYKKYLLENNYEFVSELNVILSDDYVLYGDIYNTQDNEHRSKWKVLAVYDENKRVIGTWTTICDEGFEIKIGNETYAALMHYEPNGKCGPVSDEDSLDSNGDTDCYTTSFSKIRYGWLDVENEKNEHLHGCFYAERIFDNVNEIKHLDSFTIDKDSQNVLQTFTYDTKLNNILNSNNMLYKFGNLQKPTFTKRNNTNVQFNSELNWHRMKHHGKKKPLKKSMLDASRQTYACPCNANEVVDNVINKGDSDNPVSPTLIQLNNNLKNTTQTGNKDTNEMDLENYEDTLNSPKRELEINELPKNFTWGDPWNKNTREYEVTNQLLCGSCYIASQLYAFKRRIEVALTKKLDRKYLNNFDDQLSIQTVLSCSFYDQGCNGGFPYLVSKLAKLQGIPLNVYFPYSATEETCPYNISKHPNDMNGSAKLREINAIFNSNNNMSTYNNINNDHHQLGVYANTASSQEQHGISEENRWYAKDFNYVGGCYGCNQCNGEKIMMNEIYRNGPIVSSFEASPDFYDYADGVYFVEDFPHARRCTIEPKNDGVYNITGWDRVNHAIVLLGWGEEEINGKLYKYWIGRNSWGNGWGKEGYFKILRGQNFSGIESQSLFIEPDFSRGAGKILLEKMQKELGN", "test": "primary screen, percent inhibition; read by cleavage of a fluorogenic dipeptide substrate; higher = more effect of the substance", "parameters": "species or system P. falciparum D10 trophozoite lysates; single well", "units": {"% Inhibition @ 10 uM": "%"}, "values": [{"smiles": "CCOC(=O)c1c(CC(C)C)csc1NC(=O)c1ccccc1F", "% Inhibition @ 10 uM": -3.98}, {"smiles": "O=C(Nc1ccc(O)cc1)c1scc2c1CCCC2", "% Inhibition @ 10 uM": -3.41}, {"smiles": "Cc1ccc(C(NC(N)=O)c2cccc(C)c2)cc1", "note": "(stereo not shown)", "% Inhibition @ 10 uM": 4.61}, {"smiles": "Cc1cc(=O)n2nc(N(C)CC(=O)NCc3ccccc3Cl)sc2n1", "% Inhibition @ 10 uM": -2}, {"smiles": "Cc1ccc(CN(Cc2ccccc2)C(=S)NCC(=O)N2CCC3(CC2)OCCO3)o1", "% Inhibition @ 10 uM": -2.14}, {"smiles": "Cc1ccccc1S(=O)(=O)Nc1ccc(C(=O)c2ccccc2)cc1", "% Inhibition @ 10 uM": -0.872}, {"smiles": "Cn1c(SCc2ccc(Cl)cc2)nc(=O)c2c1NC(=O)CC2c1cccc(O)c1", "note": "(stereo not shown)", "% Inhibition @ 10 uM": 3.84}, {"smiles": "CCN(CC)C(=O)c1sc2nc3c(cc2c1N)C(=O)CCC3", "% Inhibition @ 10 uM": -4.39}, {"smiles": "O=C(c1cc2n(n1)C(C(F)(F)F)CC(c1ccco1)N2)N1CCN(c2ccccn2)CC1", "note": "(stereo not shown)", "% Inhibition @ 10 uM": -2.75}, {"smiles": "CC(C)c1ccc(/C=C/C(=O)Nc2nc3ccc(S(C)(=O)=O)cc3s2)cc1", "% Inhibition @ 10 uM": 1.96}, {"smiles": "Cc1ccc2c(c1)C1NC(=S)N(CCc3ccccc3)C(C)(O2)C1C(=O)N(C)C", "note": "(stereo not shown)", "% Inhibition @ 10 uM": -9.18}, {"smiles": "COc1ccc(OC)c(NC(=O)c2ccc(S(=O)(=O)N3CCCCC3C)cc2)c1", "note": "(stereo not shown)", "% Inhibition @ 10 uM": 13.5}, {"smiles": "COC(=O)c1c(NC(=O)c2cc(=O)c3ccccc3o2)sc(C(C)=O)c1C", "% Inhibition @ 10 uM": 0.248}, {"smiles": "O=C(c1cccnc1)N1CCN(c2ccc3ccccc3n2)CC1", "% Inhibition @ 10 uM": 0.266}, {"smiles": "CCOc1ccc(C2=C/C(=C/c3ccc(Br)o3)C(=O)O2)cc1", "% Inhibition @ 10 uM": -1.92}, {"smiles": "CC(=O)c1cccc(N2C(=O)C3C4CCC(C4=C(C)C)C3C2=O)c1", "note": "(stereo not shown)", "% Inhibition @ 10 uM": 4.07}, {"smiles": "CC(Oc1ccccc1F)C(=O)N(Cc1ccc(N(C)C)cc1)C1CCS(=O)(=O)C1", "note": "(stereo not shown)", "% Inhibition @ 10 uM": 1.34}, {"smiles": "COc1ccc(S(=O)(=O)Cc2ccc(C(=O)NCc3ccc(Cl)cc3)o2)cc1", "% Inhibition @ 10 uM": 5.34}, {"smiles": "O=C(CC1(Cc2ccc(Cl)cc2)C(=O)c2ccccc2C1=O)c1ccccc1", "% Inhibition @ 10 uM": -7.98}, {"smiles": "CC/N=C1/SC(CC(=O)Nc2ccccc2CC)C(=O)N1CC", "note": "(stereo not shown)", "% Inhibition @ 10 uM": -1.16}, {"smiles": "CC(=O)Cc1ccc2cccc(O)c2n1", "% Inhibition @ 10 uM": 1.7}, {"smiles": "N#Cc1ccccc1CSc1nc2ccccc2s1", "% Inhibition @ 10 uM": 4.89}, {"smiles": "O=C(O)CCCC(=O)N1CCN(c2cccc(Cl)c2)CC1", "% Inhibition @ 10 uM": 2.32}, {"smiles": "CCc1ccc(OCC(=O)NCc2nc(-c3ccc(C)cc3)no2)c(Br)c1", "% Inhibition @ 10 uM": -8.69}, {"smiles": "CCN(CC)C(=O)CSc1nc(C2CC2)cc(C(F)(F)F)c1C#N", "% Inhibition @ 10 uM": 3.99}, {"smiles": "O=C(CCc1nc2cccnc2n1Cc1ccccc1)NCCc1ccc(Cl)cc1", "% Inhibition @ 10 uM": -1.08}, {"smiles": "CC(Cc1ccccc1F)N1CCCCC1CO", "note": "(stereo not shown)", "% Inhibition @ 10 uM": 6.17}, {"smiles": "Cc1ccccc1OCC(=O)Nc1ccc(S(=O)(=O)N2CCCCCC2)cc1", "% Inhibition @ 10 uM": 1.7}, {"smiles": "N#CC1=C(SCC(=O)NCc2ccccc2)N=C2CCCC(O)=C2C1c1ccco1", "note": "(stereo not shown)", "% Inhibition @ 10 uM": 3.79}, {"smiles": "Nc1ncc(Br)cc1S(=O)(=O)NCc1cccnc1", "% Inhibition @ 10 uM": 4.61}, {"smiles": "CC1(C)CC(=O)C2=C(C1)N(c1nc[nH]n1)C(N)=C(C#N)C2c1ccc2c(c1)OCO2", "note": "(stereo not shown)", "% Inhibition @ 10 uM": 2.38}, {"smiles": "Cc1noc2ncnc(NCc3ccc4c(c3)OCO4)c12", "% Inhibition @ 10 uM": 1.23}, {"smiles": "CC(C)N1CCN(C(=O)c2ccccc2)CC1", "% Inhibition @ 10 uM": -7.18}, {"smiles": "Cc1nc2ccccc2c2c1C(=O)N(CCC1=CCCCC1)C2=O", "% Inhibition @ 10 uM": -2.49}, {"smiles": "CCOc1c(NC(=O)[C@H](CC(C)C)NC(=O)[C@H](CC(C)C)NC(=O)[C@H](CC(C)C)NC(=O)OCc2ccccc2)c(=O)c1=O", "% Inhibition @ 10 uM": -8.36}, {"smiles": "Cc1ccn2c(=O)c(C(=O)Nc3cccnc3)cnc2c1", "% Inhibition @ 10 uM": 0.0579}, {"smiles": "CCCC(=O)Nc1ccc2c(c1)ncn2C(C)(C)C", "% Inhibition @ 10 uM": -4.97}, {"smiles": "CN(C)c1ccc(C(=S)N2CCOCC2)cc1", "% Inhibition @ 10 uM": -3}, {"smiles": "CCCn1c2ccccc2c2cnn(CC(=O)N3CC(C)CC(C)C3)c(=O)c21", "note": "(stereo not shown)", "% Inhibition @ 10 uM": 1.66}, {"smiles": "COc1ccccc1-c1n[nH]c(SCc2ccc(C(=O)O)cc2)n1", "% Inhibition @ 10 uM": -1.98}, {"smiles": "CCOC(=O)/C(C#N)=C/c1ccc(OC)cc1OC", "% Inhibition @ 10 uM": 9.68}, {"smiles": "CCc1nn(CC(=O)N2CCN(CC)CC2)c(=O)c2cc3sccc3n12", "% Inhibition @ 10 uM": 3.2}, {"smiles": "CC(C)C[C@H](NC(=O)c1ccccc1-c1ccc(C(F)(F)F)cc1)C(=O)NCC#N", "% Inhibition @ 10 uM": 17}, {"smiles": "CC1(C)CC(=O)C(CCC#N)(CCC#N)C(=O)C1", "% Inhibition @ 10 uM": -4.01}, {"smiles": "COCCNC(=O)C1CCN(c2nn3c(=O)cc(C)nc3s2)CC1", "% Inhibition @ 10 uM": -3.79}, {"smiles": "Cc1nc(O)c(C#N)c(C)c1CSCc1ccco1", "% Inhibition @ 10 uM": 0.343}, {"smiles": "CCNC(=O)c1c(O)c2ccccc2n(CC)c1=O", "% Inhibition @ 10 uM": 1}, {"smiles": "CCC(C)NC(=O)Cn1nc(C)n2c(cc3cc(OC)ccc32)c1=O", "note": "(stereo not shown)", "% Inhibition @ 10 uM": -5.32}, {"smiles": "CCC1=NN(C(=O)c2ccc(OC)cc2)C(O)(c2ccccc2)C1", "note": "(stereo not shown)", "% Inhibition @ 10 uM": 3.53}]}]}
